Reference: the supplement of paper PMC12217912
The other results are listed elsewhere or left out. The full chains were built here from the parent and the listed change. Inactive controls read about 0.05.

B1: TEV protease; numbered along this chain (parent)
chain: MGESLFKGPRDYNPISSSICHLTNESDGHTTSLYGIGFGPFIITNKHLFRRNNGTLVVQSLHGVFKVKDTTTLQQHLVDGRDMIIIRMPKDFPPFPQKLKFREPQREERICLVTTNFQTKSMSSMVSDTSCTFPSGDGIFWKHWIQTKDGQCGSPLVSTRDGFIVGIHSASNFTNTNNYFTSVPKNFMELLTNQEAQQWVSGWRLNADSVLWGGHKVFMVKPEEPFQPVKEATQL

Variants of: B1
Assay: raw area under fraction-flipped curve 0-4 h after induction (AUC4h, not background-subtracted), DNA-recorder readout of cleavage of the substrate (dimensionless); higher = more cleavage of the substrate by the protease variant
Settings: temperature: 34 °C; time window: 0-4 h after rhamnose induction
Protocol: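 In vivo DNA recorder in E. coli TOP10(DE3) ΔrhaA at 34 °C. Each TEVp single-site mutant (parent TEVp 0) is paired with a single-site variant of the 7-mer TEVs (canonical ENLYFQ|S). The substrate sits between flexible linkers in a Bxb1-sfGFP-TEVs-SsrA fusion, so cleavage stabilises Bxb1 and speeds flipping of a recombination array, read by NGS. The value is the raw area under the fraction-flipped curve over 0-4 h after rhamnose induction (AUC4h), with ≥20 reads per time point. It is not background-subtracted; inactive controls average about 0.047.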
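Also: Bxb1 expression induced with 0.2% (w/v) L-rhamnose at OD600 near 0.5, cultures sampled hourly, flipped fraction per protease–substrate barcode pair counted by paired-end Illumina sequencing.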

Row | Variant | area with substrate ECLYFQS | area with substrate EDLYFQS | area with substrate EELYFQS | area with substrate EHLYFQS | area with substrate EKLYFQS | area with substrate ELLYFQS | area with substrate EPLYFQS | area with substrate EQLYFQS | area with substrate ERLYFQS | area with substrate ESLYFQS | area with substrate EVLYFQS | area with substrate EILYFQS | area with substrate EMLYFQS | area with substrate ETLYFQS | area with substrate EGLYFQS | area with substrate EWLYFQS | area with substrate EFLYFQS | area with substrate EYLYFQS
1 | W199C | 0.0861 | 0.053 | 0.0875 | 0.0564 | 0.0772 | 0.0582 | 0.0593 | 0.0607 | 0.0612 | 0.0641 | 0.0601 |  |  |  |  |  |  | 
2 | V113Q | 0.072 | 0.0677 |  | 0.113 | 0.0912 |  | 0.061 | 0.0903 | 0.108 |  | 0.0747 | 0.0771 | 0.0751 | 0.092 |  |  |  | 
3 | L33G | 0.0966 |  | 0.115 |  | 0.0616 | 0.0956 |  | 0.107 | 0.0846 | 0.166 | 0.0867 | 0.0744 | 0.127 | 0.121 | 0.16 | 0.0909 |  | 
4 | E195M | 0.13 | 0.101 | 0.0946 | 0.069 | 0.0824 |  |  | 0.0778 | 0.0764 | 0.0852 |  | 0.0918 |  |  |  |  |  | 
5 | L191M | 0.111 | 0.0966 | 0.0952 | 0.0979 | 0.116 | 0.0791 | 0.123 | 0.108 | 0.0846 | 0.0966 | 0.088 | 0.0844 | 0.0998 | 0.0542 | 0.079 | 0.0953 | 0.0895 | 0.109
6 | T30Q | 0.109 |  | 0.0984 | 0.104 |  | 0.0782 | 0.0642 | 0.133 | 0.104 | 0.0848 | 0.112 |  |  |  | 0.0816 |  |  | 0.1
7 | T192A |  | 0.112 |  | 0.105 | 0.0873 | 0.0854 |  | 0.111 | 0.0883 | 0.0797 | 0.0705 | 0.105 | 0.105 | 0.0969 | 0.0769 |  |  | 
8 | R160P | 0.0457 |  | 0.0804 | 0.0891 |  | 0.0431 |  | 0.1 | 0.0812 | 0.0951 | 0.109 | 0.0607 | 0.0771 | 0.0883 |  |  |  | 0.0939
9 | Q198D | 0.108 |  | 0.102 | 0.142 |  | 0.0899 | 0.178 | 0.127 | 0.108 | 0.0744 | 0.0698 | 0.089 | 0.0957 | 0.0978 |  | 0.097 | 0.0929 | 0.1
10 | M219I | 0.107 |  | 0.113 | 0.106 | 0.0963 |  | 0.113 | 0.116 |  | 0.113 | 0.14 | 0.0869 |  |  | 0.0932 | 0.108 | 0.112 | 
11 | K98T | 0.117 | 0.117 | 0.119 | 0.0784 | 0.135 |  | 0.161 | 0.102 | 0.103 | 0.118 | 0.0796 | 0.119 | 0.119 | 0.11 | 0.0785 | 0.0951 | 0.0732 | 
12 | K100I | 0.0715 |  | 0.127 | 0.132 |  | 0.0848 |  |  | 0.127 | 0.0972 | 0.108 |  | 0.0993 |  | 0.0785 |  | 0.115 | 0.0999
13 | G35W | 0.0631 | 0.0547 |  | 0.0405 | 0.0611 |  |  | 0.0496 | 0.0334 | 0.0375 |  |  |  |  |  | 0.0705 | 0.0721 | 
14 | D11G | 0.0999 | 0.112 | 0.115 | 0.103 | 0.0987 |  |  | 0.102 | 0.108 | 0.11 | 0.0996 | 0.0459 | 0.103 |  | 0.102 |  | 0.102 | 0.108
15 | F133C | 0.113 | 0.117 | 0.103 |  | 0.0955 |  |  | 0.142 |  |  | 0.0728 | 0.0943 | 0.113 |  | 0.0977 | 0.089 |  | 0.109
16 | F38T | 0.084 | 0.141 |  | 0.0815 | 0.0762 | 0.0739 | 0.109 | 0.097 | 0.0802 | 0.0936 | 0.0622 | 0.06 |  |  | 0.0817 | 0.0803 |  | 0.103
17 | P225A | 0.108 | 0.176 | 0.126 | 0.0993 |  |  | 0.121 | 0.129 | 0.0974 |  | 0.0836 | 0.109 | 0.124 | 0.0801 |  |  |  | 0.0855
18 | S123E | 0.103 | 0.112 | 0.111 | 0.115 | 0.0731 | 0.0899 | 0.096 | 0.0956 | 0.094 | 0.0889 | 0.104 | 0.095 | 0.105 | 0.105 | 0.0937 | 0.113 | 0.104 | 
19 | T31S | 0.117 |  | 0.114 |  | 0.11 |  |  | 0.106 | 0.0908 | 0.0916 | 0.105 | 0.0868 | 0.103 | 0.109 | 0.084 | 0.144 | 0.0941 | 0.0932
20 | V165G | 0.0698 |  | 0.0527 |  | 0.0597 | 0.0546 | 0.0663 | 0.0529 | 0.0525 | 0.0471 | 0.0593 | 0.0506 | 0.0538 |  | 0.0696 |  |  | 
21 | V165A | 0.0569 | 0.0458 |  | 0.0313 | 0.0816 |  |  |  |  | 0.0551 | 0.0249 |  | 0.0473 |  | 0.0449 | 0.0698 |  | 
22 | S121P |  | 0.143 |  |  |  | 0.0829 | 0.144 |  | 0.104 | 0.0887 |  | 0.123 | 0.116 |  |  | 0.0844 |  | 
23 | D137Y |  | 0.176 | 0.104 |  | 0.104 | 0.113 |  |  | 0.0907 |  |  |  |  |  | 0.0763 | 0.0999 | 0.0952 | 0.106
24 | K221V | 0.091 | 0.0926 | 0.0919 |  | 0.091 |  | 0.157 | 0.105 | 0.0675 | 0.0846 |  | 0.0676 |  |  |  | 0.0985 |  | 0.104
25 | D161Y |  | 0.0717 | 0.0673 | 0.0431 | 0.0706 | 0.0576 |  | 0.0714 | 0.0588 | 0.0788 |  | 0.0642 |  |  |  | 0.072 | 0.0635 | 
26 | T44G | 0.0812 | 0.087 |  | 0.0671 | 0.0721 | 0.0624 | 0.0868 | 0.0583 | 0.08 | 0.0461 | 0.0768 |  |  | 0.0815 | 0.0667 | 0.061 | 0.0692 | 
27 | L156S | 0.0421 |  | 0.0784 | 0.0761 | 0.0565 | 0.0691 |  | 0.0798 | 0.0775 | 0.0724 |  | 0.063 | 0.0708 |  | 0.0675 |  |  | 0.0836
28 | L112E | 0.0605 |  |  | 0.0578 | 0.0661 | 0.0507 | 0.0517 | 0.0656 | 0.0625 | 0.0647 | 0.0671 | 0.0367 | 0.063 | 0.233 | 0.0622 |  |  | 0.0607
